Out of some 360,000 compounds screened, about 740 (0.21%) were called active. Inconclusive means that the source gave no clear call. Such entries were picked first, then a sample of the others. The call rests on the fitted dose curve; in most records, active means well fitted inhibition curve with a large enough effect; inconclusive means small, poorly fitted or top-dose-only effect; inactive means no such curve, though single readings can be large or run the other way. Potencies of inconclusive entries are left out as doubtful fits.
System: Plasmodium falciparum AMA1 (3D7) - RON2 peptide interaction
Test: qHTS for Inhibitors of AMA1-RON; Towards Development of Antimalarial Drug Lead: Primary Screen; further: nearly all actives have a fitted effect of over 45% in size;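 on activity change, negative = inhibition: 0% = vehicle wells and -100% = peptide control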
Settings: AlphaScreen AMA1-biotinylated RON2 peptide binding; activity change, negative = inhibition: at 58.2 µM (top of the series) unless noted
Summary of the method: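 AMA1 (3D7) with his tag at 25 nM final met compounds first, then biotinylated RON2 peptide at 25 nM; detection used donor plus acceptor beads, 10 µg/mL apiece, read by AlphaScreen after 30 min at room temperature.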
Potency means the concentration at half of the fitted maximal effect; tags describe the fitted curve by direction and shape.

Structure (SMILES) | activity change, negative = inhibition | Potency
COc1ccc2[nH]c(C(=O)N3CCc4ccccc4C3)c(C)c2c1 | inactive: -6.05% | –
COc1ccc(Nc2nc(Nc3ccc(OC)cc3OC)nc(N3CCN(C)CC3)n2)c(OC)c1 | – | inconclusive [inhibitor, full curve, poor fit]
CCOc1ccccc1N1CCN(C/C=C/c2ccc(N(C)C)cc2)CC1 | – | inconclusive [inhibitor, single point]
COc1ccc(CNS(=O)(=O)NCc2ccc(OC)c(OC)c2)cc1OC | – | inconclusive [inhibitor, partial curve]
COc1ccc2sc(-c3ccccc3OC)c(-c3ccc(OCCN4CCCC4)cc3)c2c1 | – | inconclusive [inhibitor, partial curve]
CCOCCn1c(=NC(=O)c2ccc(S(=O)(=O)N3CCOCC3)cc2)sc2cc(S(N)(=O)=O)ccc21 | inactive: 3.26% | –
CC(=O)N1CCN(C2=NC(=O)/C(=C/c3ccc(OS(=O)(=O)c4ccccc4)cc3)S2)CC1 | inactive: 10.1% | –
CN(CCOc1ccccc1)CC(=O)Nc1cccc(Br)c1 | inactive: -9.09% | –
Cc1ccc(S(=O)(=O)NNC(=O)c2cc(C)cs2)cc1 | inactive: 7.33% | –
O=C1NC(=Nc2ccccc2)S/C1=C\C=C\c1ccco1 | inactive: -0.585% | –
CCCCNC(=O)c1nc(-c2cccnc2OC)oc1-c1ccc(Cl)cc1 | inactive: -5.73% | –
Cc1ccc(O)c(C(=O)C=Cc2ccccc2)c1 | – | inconclusive [inhibitor, single point]
CCc1ccc(NC(=O)N(CCN2CCOCC2)Cc2ccc3c(c2)CCCN3CC)cc1 | – | inconclusive [inhibitor, partial curve]
COCCn1nnnc1CN1CCN2CCCC2C1 (centres undefined) | – | inconclusive [inhibitor, single point]
CCOC(=O)c1c(NC(=S)N2CCN(C)CC2)sc2c1CCN(C(=O)OCC)C2 | – | inconclusive [inhibitor, partial curve]
COc1ccc(OCCn2cncn2)cc1 | inconclusive: -19% [inhibitor] | –
N#Cc1ccc(C23CC4CC(CC(C4)C2)C3)[nH]c1=O | – | inconclusive [inhibitor, single point]
O=[N+]([O-])c1ccc2[nH]c3c(c2c1)CCCC3 | – | inconclusive [inhibitor, single point]
CC1CCc2ccccc2N1CC(=O)Nc1cccc(S(=O)(=O)N2CCCC2)c1 (centres undefined) | – | inconclusive [inhibitor, partial curve]
Cc1c(C)n(CC(O)CNc2ccccc2)c2ccccc12 (centres undefined) | – | inconclusive [inhibitor, single point]
O=C(CN1CCCCC1)NN(Cc1ccccc1)c1ccccc1 | – | inconclusive [inhibitor, partial curve]
CCOC(=O)C1(CCOc2ccccc2)CCN(Cc2ccc(OC)c(COC)c2)CC1 | – | inconclusive [inhibitor, partial curve, poor fit]

Structure (SMILES) | activity change, negative = inhibition | Potency
COc1cccc(/C=N/n2c(CO)nc3ccccc32)c1OC | inconclusive: -4.57% [inhibitor] | –
O=C1CC(=C2c3ccccc3-c3ccccc32)C(=O)N1CCCCN1CCN(c2ccccc2)CC1 | – | inconclusive [inhibitor, partial curve]
O=C(c1sc2cc(F)ccc2c1Cl)N1CCN(c2ccccc2)CC1 | – | inconclusive [inhibitor, full curve, poor fit]
O=C(Nc1c(C(=O)N2CCCCC2)cnn1-c1ccccc1)c1ccccc1 | inactive: 10.7% | –
Cc1cccc(NC(=O)CNC(=O)c2cccs2)n1 | inactive: 0.0366% | –
O=C1NN(c2ccccc2)C(=O)/C1=C/c1ccc(Sc2cccc3ccccc23)o1 | – | inconclusive [inhibitor, partial curve]
CS(=O)(=O)/C(C#N)=C/c1cccn1S(=O)(=O)c1cccc2ccccc12 | – | inconclusive [inhibitor, single point]
NS(=O)(=O)c1ccc(NC(=O)c2cccc(N3C(=O)c4ccccc4C3=O)c2)cc1 | – | inconclusive [inhibitor, partial curve]
c1ccc2c(-n3cnnn3)cccc2c1 | – | inconclusive [inhibitor, partial curve]
CC1CCN(C(C)C(=O)Nc2ccccc2-c2ccccc2)CC1 (centres undefined) | – | inconclusive [inhibitor, partial curve]
COc1ccc(CCNc2ncnc3c2[nH]c2cc(OC)c(OC)cc23)cc1OC | – | inconclusive [inhibitor, single point]
CCN1CCN(c2cc(N3CCCC3)c(F)cc2[N+](=O)[O-])CC1 | – | inconclusive [inhibitor, full curve, poor fit]
CN(C)c1ccc(CC(=O)N2CCCCC2c2cc(C(=O)Nc3ccccc3Cl)no2)cc1 (centres undefined) | – | inconclusive [inhibitor, partial curve]
C=CCc1ccccc1OCC(O)CNC (centres undefined) | inactive: -20.4% | –
Cc1cc(/C=N/n2c(COc3ccccc3C)nc3ccccc3c2=O)c(O)c([N+](=O)[O-])c1 | – | inconclusive [inhibitor, full curve]
CC(=O)Nc1ccc(-c2csc(NC(=O)C3CCN(S(=O)(=O)c4cccs4)CC3)n2)cc1 | – | inconclusive [inhibitor, full curve, poor fit]
Cc1cccc(C)c1Oc1nc(-c2ccccc2)ncc1S(=O)(=O)c1ccccc1 | inactive: 3.25% | –
O=Cc1cccc(OCc2cn(CC(=O)c3ccc(O)cc3)nn2)c1 | inactive: 4.27% | –
COc1ccc(S(=O)(=O)/N=C2\C=C(Nc3ccc(O)cc3)C(=O)c3ccccc32)cc1 | – | active: 17.8 µM
Cc1ccc(CN2CCN(/N=C/c3cccnc3)CC2)c(C)c1 | – | inconclusive [inhibitor, single point]
COc1ccc(/C=C/C(=O)OCc2cc(=O)n3c(n2)sc2ccccc23)cc1 | – | inconclusive [inhibitor, partial curve, poor fit]
O=C(Cn1cc[n+](CC(=O)c2ccccc2)c1)c1ccccc1 | inactive: 10.5% | –

From PubChem BioAssay AID720542 (National Center for Advancing Translational Sciences (NCATS), 2013)
